# In PubChem BioAssay AID1345082 (National Center for Advancing Translational Sciences (NCATS), 2018):
# Out of some 94,000 compounds screened, about 4,000 (4.3%) were called active. This list was built around the results that the source calls inconclusive (neither active nor inactive); the mix of calls is not that of the screen. Calls follow the shape of the dose curve; as a rule, active = well fitted inhibition curve with a large enough effect; inconclusive = small, poorly fitted or top-dose-only effect; inactive = no such curve, though single readings can be large or run the other way. A potency beside an inconclusive call is a rough fit, not a confirmed value.
# Experiment: Cytotoxic Profiling in NIH 3T3 Cell Line of Diverse Libraries Using Quantitative High-Throughput Screening; also: nearly all actives have a fitted effect of over 55% in size
# Details: NIH 3T3 viability, CellTiter-Glo ATP luminescence, 48-72 h; series mostly up to 96.7 µM
# Outline: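 NIH 3T3 cells at 400 cells/well received 23 nL of compound by pintool and were incubated 48 or 72 h at 37 °C. Viability was read as ATP-coupled CellTiter-Glo luminescence.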
# Potency is read from the fitted curve at half-maximal effect; tags tell the direction and shape of the fitted curve.
row,SMILES,Potency
1,CN(Cc1ccc2nsnc2c1)Cc1nc(Cc2cccc(C(F)(F)F)c2)no1,"inconclusive: 56.2 µM [inhibitor, partial curve, poor fit]"
2,COC(=O)c1ccc2nc(CO[C@H]3CN(Cc4ccc(Cl)cc4)C[C@H]3F)[nH]c2c1,active: 89.1 µM
3,O=C1NC2(CCN(C(=O)c3ccc(F)cc3)C2)OCc2ccccc21 (stereo not drawn),inactive
4,COc1ccc(C(=O)N2CCC3(CC2)CCC(O)(CN(C)C)CC3)cn1,inactive
5,CN1CC(=O)N(C2CCNC2)Cc2c1ncnc2N1CCC(c2ccccc2)CC1 (stereo not drawn),inactive
6,Cc1ccc(CN2CCC(CNc3cc(C4CC(O)C4)ncn3)CC2)o1 (stereo not drawn),"inconclusive: 39.8 µM [inhibitor, partial curve]"
7,CCC(=O)N1CCN(c2nc3c(s2)CC(C(=O)Nc2ccc(OC)c(F)c2)CC3)CC1 (stereo not drawn),"inconclusive: 50.1 µM [inhibitor, partial curve, poor fit]"
8,Cc1cc(C(=O)N2CCC3(CC2)CC(N(Cc2ccc(F)cc2)C2CC2)CCO3)n(C)n1 (stereo not drawn),"inconclusive: 11.2 µM [inhibitor, partial curve, poor fit]"
9,O=C(NCc1cccc(C(F)(F)F)c1)C1CCCN(Cc2cccc(-c3cccs3)c2)C1 (stereo not drawn),active: 7.94 µM
10,COc1ccc(S(=O)(=O)N2[C@@H]3CC[C@H]2CC(NC(=O)c2ccc(F)cc2)C3)cc1OC (stereo partly drawn),"inconclusive: 56.2 µM [inhibitor, partial curve, poor fit]"
11,Oc1cccc(CN2CCCC23CCN(c2ccc(C(F)(F)F)cn2)CC3)c1,"inconclusive: 56.2 µM [inhibitor, partial curve, poor fit]"
12,CN(Cc1ccccc1)C(=O)[C@H]1O[C@H](CCN2CCN(Cc3ccccc3)CC2)CC[C@@H]1O,inactive
13,O=C(Nc1ccc(Cl)cc1)Nc1ccc2n(c1=O)C[C@H]1C[C@@H]2CN(C(=O)c2ccc3ccccc3c2)C1,active: 39.8 µM
14,CN(CC(=O)N1CCc2nc3cc(-c4ccccc4)[nH]n3c(=O)c2C1)S(=O)(=O)c1cnc[nH]1,"inconclusive: 50.1 µM [inhibitor, partial curve, poor fit]"
15,COCC(=O)NC1CCCN(c2ccc3nnc(C4CC4)n3n2)C1 (stereo not drawn),inactive
16,Cn1cc(CN2CCN3C(=O)N(C4CCOCC4)C[C@H]3C2)cn1,inactive
17,C=CCOC(=O)C1=C(C)N=C2SC=C(CC(=O)N3CCCC3)N2C1c1cc(OC)cc(OC)c1 (stereo not drawn),inactive
18,Cc1nnc(-c2cc(Nc3cccc(N(C)C)c3)ccn2)n1C1CCCCC1,"inconclusive: 89.1 µM [inhibitor, partial curve, poor fit]"
19,Fc1ccc(-c2ccc3ncc(Nc4ncccn4)n3n2)cc1,"inconclusive: 89.1 µM [inhibitor, single point]"
20,Cc1cccc(CNC(=O)c2c(C)noc2-c2ccccc2Cl)c1,"inconclusive: 50.1 µM [inhibitor, partial curve, poor fit]"
21,Cc1nc(C2CC(O)C2)cc(N(C)Cc2ccc3c(c2)OCO3)n1 (stereo not drawn),"inconclusive: 3.55 µM [inhibitor, full curve, poor fit]"
22,Cc1nc(C)c(C(=O)N2CCC(Oc3ccc(-c4noc(C5CC5)n4)cc3)C2)s1 (stereo not drawn),"inconclusive: 50.1 µM [inhibitor, partial curve, poor fit]"
23,CCCc1ccc(S(=O)(=O)N2CCCC(Cn3c(C)nc4cccnc43)C2)cc1 (stereo not drawn),"inconclusive: 35.5 µM [inhibitor, partial curve, poor fit]"

row,SMILES,Potency
1,COc1ccc2c(C)c(C(=O)N3CC[C@H](CO)[C@@H](O)C3)oc2c1,inactive
2,COc1ccc(CCNC(=O)CC(c2cccc(F)c2)c2cn(C)c3ccccc23)cc1OC (stereo not drawn),active: 22.4 µM
3,Cc1ccccc1OCc1nc(C2CN(C(=O)c3ccc4nc[nH]c4c3)C2)no1,"inconclusive: 44.7 µM [inhibitor, partial curve, poor fit]"
4,COc1cc(C(=O)NCCCn2ccnn2)ccc1OC1CCN(C(C)=O)CC1,inactive
5,Cc1ccc(-c2ccccc2CN)cc1Cl,active: 35.5 µM
6,Cc1cc(F)ccc1NC(=O)c1cc(-c2ccc[nH]2)n[nH]1,inactive
7,COc1ccc(C(C(=O)O)N2CCN(c3ccc(F)cc3)CC2)c(OC)n1 (stereo not drawn),inactive
8,O=C(CCC[C@@H]1[C@H]2CCCN3CCC[C@@H](CN1Cc1ccccc1)[C@@H]23)N1CCCC1,"inconclusive: 44.7 µM [inhibitor, partial curve, poor fit]"
9,COc1ccc(CC(=O)N2CCCC(c3nn(-c4ccccn4)c(=O)[nH]3)C2)cc1 (stereo not drawn),inactive
10,O=S(=O)(c1ccc2c(c1)CCC2)N1CCC(Cc2nc(-c3ccncc3)n[nH]2)C1 (stereo not drawn),"inconclusive: 44.7 µM [inhibitor, partial curve, poor fit]"
11,Cc1cc(CN(C)c2cc(C3CC(N)C3)nc(N)n2)no1 (stereo not drawn),inactive
12,COc1c(C)cccc1C(=O)N1CCC2(CC1)Nc1ccccc1NC2=O,"inconclusive: 89.1 µM [inhibitor, single point]"
13,COc1ccccc1-c1cccc(CN2CCC(NC(=O)Nc3ccccc3)CC2)c1,active: 17.8 µM
14,COc1ccccc1CC(=O)N1CCC[C@H]1c1nc(-c2ccccc2Cl)no1,"inconclusive: 50.1 µM [inhibitor, single point]"
15,COc1ccc(-c2noc(CC3CCN(C(=O)c4ccc(OC)c(OC)c4)CC3)n2)cc1,"inconclusive: 11.2 µM [inhibitor, full curve]"
16,O=C(NCc1ccccc1F)C1CCCN(Cc2cccc(-c3cccs3)c2)C1 (stereo not drawn),active: 39.8 µM
17,O=C(CCC1CCCCC1)NC1CCN(c2ccc(=O)n(CC3CC3)n2)CC1,"inconclusive: 39.8 µM [inhibitor, partial curve]"
18,O=C(Cc1cccc(F)c1)N1CCC2(CC1)NC(=O)N(Cc1ccccc1Cl)C2=O,"inconclusive: 50.1 µM [inhibitor, partial curve, poor fit]"
19,O=S(=O)(c1cccc2ccccc12)N1CCCC(CO)(Cc2cccc(Cl)c2)C1 (stereo not drawn),active: 44.7 µM
20,O=C(N[C@H]1CCN2C(=O)c3cc(-c4cccc(C(F)(F)F)c4)ccc3NC(=O)[C@@H]2C1)c1cnccn1,"inconclusive: 89.1 µM [inhibitor, single point]"
21,O=C(Nc1ccccc1)N1CCC(c2nn(-c3ccc(Cl)cc3)c(=O)[nH]2)CC1,"inconclusive: 50.1 µM [inhibitor, partial curve, poor fit]"
22,Cn1cc(CN2CCN(c3cnccn3)CC2)c(-c2ccc(C3CCCCC3)cc2)n1,active: 79.4 µM
23,Cc1oc(-c2cccc(Oc3ccccc3)c2)nc1CN1CC[C@H](N(C)C)C1,active: 79.4 µM

row,SMILES,Potency
1,COc1cccc(C(=O)N2CCC3(CC2)NC(=O)N(c2ccccc2)N3)c1,"inconclusive: 20 µM [inhibitor, full curve]"
2,C=CCNC(=O)c1cccn2nccc12,inactive
3,O=C(C1CCCC1)N1CC2(CCCN(Cc3c[nH]c4ccccc34)C2)Cc2ccccc21 (stereo not drawn),active: 25.1 µM
4,CN1CC2(CCCN(CC3CC3)C2)c2cc(C(=O)NCCOc3ccccc3)ccc21 (stereo not drawn),active: 79.4 µM
5,COc1ccccc1Nc1ccnc(N2CCC(NC(=O)NC3CCCC3)CC2)n1,"inconclusive: 44.7 µM [inhibitor, partial curve, poor fit]"
6,Cc1nc2cnccn2c1C(=O)NCC1CC1,inactive
7,CN(Cc1nc(-c2ccncc2)no1)C(=O)C1CNCCO1 (stereo not drawn),inactive
8,COc1ccc(-c2nc(C3CC(=O)N(c4ccc(C)cc4)C3)no2)c(C)c1 (stereo not drawn),"inconclusive: 44.7 µM [inhibitor, partial curve, poor fit]"
9,COc1cc(F)ccc1CNCc1cccnc1N1CCOCC1,inactive
10,Cc1ccc(-c2ccc3nnc(CNC(=O)c4ccncc4)n3n2)cc1C,inactive
11,Cc1noc(-c2ccc(OC3CN(C(=O)NCc4ccc(F)cc4)C3)cc2)n1,"inconclusive: 11.2 µM [inhibitor, full curve]"
12,O=C(Cc1ccccc1O)NCc1cccnc1Oc1ccc(F)cc1F,inactive
13,CC(C)CC(=O)NCC1Cn2cccc2CN1Cc1ccccc1 (stereo not drawn),"inconclusive: 70.8 µM [inhibitor, single point]"
14,COc1ccc(NC(=O)[C@@H]2C[C@@H](c3cccc(C(F)(F)F)c3)N(CC3CCOCC3)C2)cc1,"inconclusive: 31.6 µM [inhibitor, partial curve]"
15,CC(C)CC(=O)N1C[C@@H](Oc2cccnc2)C[C@H]1C(=O)NC1CC1,"inconclusive: 70.8 µM [inhibitor, partial curve, poor fit]"
16,COc1cccc(S(=O)(=O)N2CCCCCCNC(=O)[C@@H]3CCCC[C@@H]32)c1,"inconclusive: 25.1 µM [inhibitor, full curve, poor fit]"
17,C=CCN1C[C@H]2COc3cc(OC)ccc3[C@H]2N(C(=O)CCCCC)CCC1=O,"inconclusive: 50.1 µM [inhibitor, partial curve, poor fit]"
18,COc1ccccc1CC(=O)NCc1nnc2cc(-c3nc(C(C)C)no3)ccn12,inactive
19,O=C(NCc1ccc2c(c1)OCO2)C1CCCN(c2nc3ncccc3o2)C1 (stereo not drawn),inactive
20,Cc1ccc(CN2C(=O)NC3(CCN(C(=O)c4cccc(Cl)c4)C3)C2=O)cc1 (stereo not drawn),"inconclusive: 44.7 µM [inhibitor, partial curve, poor fit]"
21,CN(C)Cc1cn([C@H]2CO[C@H]3[C@@H]2OC[C@H]3OC(=O)Nc2cccc(C(F)(F)F)c2)nn1,"inconclusive: 50.1 µM [inhibitor, partial curve, poor fit]"
22,CC(C)[C@H](NC(=O)Cn1nc2c(cc1=O)CCCCC2)C(=O)O,inactive
